First the molecules themselves.
B1: OR4K15 (parent)
chain: GUUAACGGUCAUAGGCCAUGGAAACUAGGAGCACCAUUUCGCUGCCAGUGAAGAAAUGAACAAAGAAAAUCUGGGCCAGGCAGGCAUCAAAAGAAAUAGUCUUGCGCUCAACCAGAAAGUCUGUAAUCAUUUUAAGGGUA

Read counts are not given, so values of variants with three or more changes are uncertain.

The variants in the data set derive from B1. The data set can be described thus: self-cleavage, relative activity (ratio to wild type); higher = more cleavage; in vitro, sequencing; the parent is a self-cleaving ribozyme.
On to GUUAACGGUCGUAGGCCAUGGAAACUAGGAGCACCAUUUCGCUGCCAGUGAAGAAAUGAACAGAGAAAAUCAGGGCCAGGCAGGCAUCAAAAGAAAUAGUCUUGCGCUCAACCAGAAAGUCUGUAAUCAUUUUAAGGGUA [A11G A63G U72A], for which the self-cleavage turned out to be 0.1.
The result for GUUAACGGUCGUAGGCCAUGGAAACUAGGAGCACCAUUUCGCUGCCAGUGAAGAAGUGAACAAAGAAAAUCUGGGCCAGGCAGGCAUCAAAAGAAAUAGUCUCGCGCUCAACCAGAAAGUCUGUGAUCAUUUUAAGGGUA [A11G A56G U103C A125G] reads 0.21; that for GUUAACGGUCGUAGGCCAUGGAAACUAGGAGCACCAUUUCGCUGCCAGUGGAGGAAUGAACAAAGAAAAUCUGGGCCAGGCAGGCAUCAAAAGAAAUAGUCUUGCGCUCAACCAGAAAGUCUGUAAUCAUUUUAAGGGUA [A11G A51G A54G], 1.37; that for GUUAACGGUCGUAGGCCAUGGAAACUAGGAGCACCAUUUCGCUGCCAGUGAAGGAAUGAACAAAGAAAAUCUGGGCCAGGCAGGCAUCAAAAGAAAUAGUCUUGCGCUCAACCAGAAGGUCUGUAAUCAUUUUAAGGGUA [A11G A54G A118G], 0.92.
As for GUUAACGGUCGUAGGCCAUGGAAACUAGGAGCACCAUUUCGCUGCCAGUGGAGAAAUGAACAAAGAAAAUCUGGGCCAGGCAGGCAUCAAAAGACAUAGUCUUGCGCUCAACCAGAAAGUCUGUAAUCAUUUUAAGGGUA [A11G A51G A95C], the self-cleavage was determined as 0.69.
As for GUUAACGGUCGUAGGCCAUGGAAACUAGGAGCACCAUUUCGCUGCCAGUGAAGAAAUGAACAAGGAAAAUCUGGGCCAGGCAGGCAUCAAAAGAAAUAGUCUCGCACUCAACCAGAAAGUCUGUAAUCAUUUUAAGGGUA [A11G A64G U103C G106A], the figure is 0.06; as for GUUAACGGUCGUAGGCCAUGGAAACUAGGAGCACCAUUUCGCUGCCAGUGAAGGAAUGAACAAAGAAAAUCUGGGCCAGGCAGGCAUCAAAAGAAAUAGUCUUGCGCCCAACCUGAAAGUCUGUAAUCAUUUUAAGGGUA [A11G A54G U108C A114U], 0.
The result for GUUAACGGUCGUAGGCCAUGGAAACUAGGAGCACCAUUUCGCUGCCAGUGGAGAAAUGAACAAAGAAAAUCUGGGCCAGGCAGGCAUCAAAAGGAGUAGUCUUGCGCUCAACCAGAAAGUCUGUAAUCAUUUUAAGGGUA [A11G A51G A94G A96G] reads 0.67.
As for GUUAACGGUCGUAGGCCAUGGAAACUAGGAGCACCAUUUCGCUGCCAGUGAAGAGAUGAACAAAGAAAAUCUGGGCCAGGCAGGCAUCAAAAGGGAUAGUCUUGCGCUCAACCAGAAAGCCUGUAAUCAUUUUAAGGAUA [A11G A55G A94G A95G U120C G138A], the figure is 1.99; as for GUUAACGGUCGUAGGCCAUGGAAACUAGGAGCACCAUUUCGCUGCCAGUGAAGAAAUGAACUAAGAAAAUCUGGGCCAGGCAGGCAUCAAAAGAUAUAGUCUUGCGCUCAACCAGAAAGUCUGUAAUCAUUUUAAGGGUA [A11G A62U A95U], 1.42; as for GUUAACGGUCGUAGGCCAUGGAAACUAGGAGCACCAUUUCGCUGCCAGUGAAGAAGUGAACAAAGAAGAUCUGGGCCAGGCAGGCAUCAAAAGAAAUAGUCUUGCGCUCAACCAGAAAGUCUGUAAUCAUUUUAAGGGUA [A11G A56G A68G], 0.68.
Turning to GUUAACGGUCGUAGGCCAUGGAAACUAGGAGCACCAUUUCGCUGCCAGUGAAGGAAUGAACAAAGAAAAUCUGGGCCAGGCAGGCAUCAAAAGAAAUAGUCUUGCGCACAACCAGAAAGUCUGUAAUCAUUUUAAGGGUA [A11G A54G U108A], the self-cleavage came to 0.04.
As for GUUAACGGUCGUAGGCCAUGGAAACUAGGAGCACCAUUUCGCUGCCAGUGAAGAUAUGAACAAAGAAAAUCUGGGCCAGGCCGGCAUCAAAAGAAAUAGUCUUGCGCUCAACCAGAAAGUCUGUAAUCAUUUCAAGGGUA [A11G A55U A82C U133C], the self-cleavage worked out at 0.25.
The result for GUUAACGGUCGUAGGCCAUGGAAACUAGGAGCACCAUUUCGCUGCCAGUGAAGAAAUGAACAGAGAAAAUCUGGGCCAGGCAGGCAUCAAAAGAAAUAGUCUUGCGCUCAACCAGAAAGUCUGUAAUCACUUUAAGGGUA [A11G A63G U130C] reads 1.57; that for GUUAACGGUCGUAGGCCAUGGAAACUAGGAGCACCAUUUCGCUGCCAGUGGAGAAAUGAACAUAGAAAAUCUGGGCCAGGCAGGCAUCAAAAGAAAUAGUCCUGCGCUCAACCAGAAAGUCUGUAAUCAUUUUAAGGGUA [A11G A51G A63U U102C], 1.38.
Turning to GUUAACGGUCGUAGGCCAUGGAAACUAGGAGCACCAUUUCGCUGCCAGUGAAGAAAUGGACAAAGAAAUUCAGGGCCAGGCAGGCAUCAAAAGAAAUAGUCCUGCGCUCUACCAGAAAGUCUGUAAUCAUUUUAAGGGUA [A11G A59G A69U U72A U102C A110U], the self-cleavage worked out at 0.37.
As to GUUAACGGUCGUAGGCCAUGGAAACUAGGAGCACCAUUUCGCUGCCAGUGGAGAAAUGAACAAAGAGGAUCUGGGCCAGGCAGGCAUCAAAAGAAAUAGUCUUGCGCUCAACCAGAAAGUCAGUAAUCAUUUUAAGGGUA [A11G A51G A67G A68G U122A], the self-cleavage was 0.66.
The result for GUUAACGGUCGUAGGCCAUGGAAACUAGGAGCACCAUUUCGCUGCCAGUGAAGAAAUGAACAGAGAAAAUCUGGGCCAGGCAGGCAUCAAAAGAAAUAGUCUUGCGCUCAACCAGAAAGUCUGUAAUCAUUUUAAGGGCA [A11G A63G U139C] reads 0.95.
As to GUUAACGGUCGUAGGCCAUGGAAACUAGGAGCACCAUUUCGCUGCCAGUGAAGAAAUGAACUAAGAAAAUCUGGGCCAGGCAGGCAUCAAAAGAAAUAGUCUUGCGCUUAACCAGAAAGUCUGUAAUCAUUUUAAGGGUA [A11G A62U C109U], the self-cleavage stood at 0.38.
With GUUAACGGUCGUAGGCCAUGGAAACUAGGAGCACCAUUUCGCUGCCAGUGAAGAAAUGAACUAAGAAAAUCUGGGCCAGGCAGGCAUCAAAAGAAAAAGUCUUGCGCUCAACCAGAAAGUCUGUAAUCAUUAUAAGGGAA [A11G A62U U97A U132A U139A], the self-cleavage is 1.11.
As for GUUAACGGUCGUAGGCCAUGGAAACUAGGAGCACCAUUUCGCUGCCAGUGAAGAAAUGAACGAAGAAAAUCUGGGCCAGGCAGGCAUCAAAAGAAAUAGUCUUGCGCUCAACCAGAGAGUCAGUAAUCAUUUUAAGGGUA [A11G A62G A117G U122A], the figure is 2.05.
Turning to GUUAACGGUCGUAGGCCAUGGAAACUAGGAGCACCAUUUCGCUGCCAGUGAAGAAAUGAACAAGGAAAAUCUGGGCGAGGCAGGCAUCAAAAGAAAUAGUCUUGCGCUCAACCAGAAAGUCUGUAAUCAUUUUAAGGGUA [A11G A64G C77G], the self-cleavage was 0.17.
The result for GUUAACGGUCGUAGGCCAUGGAAACUAGGAGCACCAUUUCGCUGCCAGUGAGGGAAUGAGCAAAGAAAAUCUGGGCCAUGCAGGCAUCAAAAGAAAUAGUCUUGCGCUCAACCAGAAAGUCUGUAAUCAUUUUAAGGGUA [A11G A52G A54G A60G G79U] reads 0.32; that for GUUAACGGUCGUAGGCCAUGGAAACUAGGAGCACCAUUUCGCUGCCAGUGAAGAAAUGAACUAAGCAAAUCUGGGCCAGGCAGGCAUCAAAAGAAAUAGUCUUGCGCUCAACCAGAAAGUCUGUAAUCAUUUUAAGGGUA [A11G A62U A66C], 0.56.
The result for GUUAACGGUCGUAGGCCAUGGAAACUAGGAGCACCAUUUCGCUGCCAGUGAUGAAAUGAACAAAGAAAAUCUGGGCCAGGCAGGCGUCAAAAGAAAUAGUCUUGCGCUCAACCAGAAAGUCUGUAAUCAUUUUAAGGGUA [A11G A52U A86G] reads 1.15.
The result for GUUAACGGUCGUAGGCCAUGGAAACUAGGAGCACCAUUUCGCUGCCAGUGAAGGAAUGAACAAAGAAAAUCCGGGCCAGGCAGGCAUCAAAAGAAAUAGUCUUGCGCUCAACCAGAAAGUCUGUAAUCAUUUUAAGGGUA [A11G A54G U72C] reads 0.37.
Take GUUAACGGUCGUAGGCCAUGGAAACUAGGAGCACCAUUUCGCUGCCAGUGGAGAAAUGAACAAAGAAAAUCUGGGCCAGGCAGGCAUCAAAGGAAAUAGUCUUGCGCUCAACCAGAAAGUCUGUAAUCACUUUAAGGGUA [A11G A51G A92G U130C]: the self-cleavage was 0.63.
The result for GUUAACGGUCGUAGGCCAUGGAAACUAGGAGCACCAUUUCGCUGCCAGUGAGGAAAUGAACAAAGAAAAUCUGGGCCAGGCAGGCAUCAAAAGAAAUAGUCUUGGGCUCAACCAGAAAGUCUGUAAUCAUUUUAAGGGUA [A11G A52G C105G] reads 0.02; that for GUUAACGGUCGUAGGCCAUGGAAACUAGGAGCACCAUUUCGCUGCCAGUGAAGAGAUGAACAAAGAAAAUCUGGGCCAGGCAGGCAUCAAAAGAUAUAGUCUUGCGCUCAACCAGAAAGUCUGUAAACAUUUUAAGGGUA [A11G A55G A95U U127A], 1.36.
The result for GUUAACGGUCGUAGGCCAUGGAAACUAGGAGCACCAUUUCGCUGCCAGUGAAGAAGUGGACAAAGAAAAUCUGGGCCAGGCAGGCAUCAAAAGAAAUAGUCUUGCGCUCAACCAGAAAGUCUGUAAUCAUUUUAAGGGUA [A11G A56G A59G] reads 1.49; that for GUUAACGGUCGUAGGCCAUGGAAACUAGGAGCACCAUUUCGCUGCCAGUGAGGAUAUGAACAAAGAAAAUCUGGGCCUGGCAGGCAUCAAAAGAAAUAGUCUUGCGCUCAACCAGAAAGUCUGUAAUCAUUUUAAGGGUA [A11G A52G A55U A78U], 0.12; that for GUUAACGGUCGUAGGCCAUGGAAACUAGGAGCACCAUUUCGCUGCCAGUGAAGAAAUGGACAAAGAAAAUCUGGGCCAGGCAGGCAUCAAGAGAAAUAGUCUUGCGCUCAACCAGAAAGUCUGUAAUCAUUUUAAGGGUA [A11G A59G A91G], 0.74.
As for GUUAACGGUCGUAGGCCAUGGAAACUAGGAGCACCAUUUCGCUGCCAGUGAAGAAAUGAACAAGGAAAAUCUGGGCCAGGCAGGCAUCAAAAGAAAUAGUCUUGCGCUCGACCAGAAAGUCUGUAAUCAUUUUAAGGGUA [A11G A64G A110G], the figure is 0.08; as for GUUAACGGUCGUAGGCCAUGGAAACUAGGAGCACCAUUUCGCUGCCAGUGAAGAGAUGAGCAAAGAAAAUCUGGGCCAGGCAGGCAUCAAAAGAAAUAGUCUUGCGCUCAACCAGAAAGUCUGUAAUCAUUUUAAGGGUA [A11G A55G A60G], 0.85; as for GUUAACGGUCGUAGGCCAUGGAAACUAGGAGCACCAUUUCGCUGCCAGUGGAGAAAUGGACAAAGAAAAUCUGGGCCAGGCAGGCAUCAAAAGAAAUAGUCUUGCGCUCAACCAGAAAGUCUGUAAUCAUUUUAUGGGUA [A11G A51G A59G A135U], 0.69.
As to GUUAACGGUCGUAGGCCAUGGAAACUAGGAGCACCAUUUCGCUGCCAGUGAGGAAAUGAACAAAGAAAAUCUGGGCCAGCCAGGCAUCAAAAGAAAAAGUCUUGCGCUCAACCAGAAAGUCUGUAACCGUUUUAAGGGUA [A11G A52G G80C U97A U127C A129G], the self-cleavage came out at 0.01.
With GUUAACGGUCGUAGGCCAUGGAAACUAGGAGCACCAUUUCGCUGCCAGUGAAGAGAUGAACAAAGAAAAUCUGGGCCAGGCAGGCAUCAAAAGAAAUAGUCUUGCGCUCAGCCAGAAAGUCUGUAAUCAUUUUAAGGGUA [A11G A55G A111G], the self-cleavage was determined as 0.05.
The result for GUUAACGGUCGUAGGCCAUGGAAACUAGGAGCACCAUUUCGCUGCCAGUGAAGGAAUGAACAAAGAAAAUCUGGGCCAGGCAGGCAUCAAAAGAAAUAGUCUUGCGCUCAGCCAGAAAGUCUGUAAUCAUUUUAAGGGUA [A11G A54G A111G] reads 0.01; that for GUUAACGGUCGUAGGCCAUGGAAACUAGGAGCACCAUUUCGCUGCCAGUGAAGAAAUGGACAAAGAAAAUCUGGGCCAGGCAGGCAUCAAAAGAAAUAGUCUUGCGCCCAGCCAGAAAGUCUGUAAUCAUUUUAAGGGUG [A11G A59G U108C A111G A140G], 0.03; that for GUUAACGGUCGUAGGCCAUGGAAACUAGGAGCACCAUUUCGCUGCCAGUGAAGAGAUGAACAAAGAAAAUCUGGGCCAGGCAGGCAUCAGAAGAAAUAGUCUUGCGCUCAACCAGGAAGUCUGUAAUCAUUUUAAGGGUA [A11G A55G A90G A116G], 0.62.
Take GUUAACGGUCGUAGGCCAUGGAAACUAGGAGCACCAUUUCGCUGCCAGUGAAGAAAUGAACGAAGAAAAUCAGGGCCAGGCAGGCAUCAAAAGAAAUAGUCUUGCGCUCAACCAGAAAGUCUGUAAUCAUUUUAAAGGUA [A11G A62G U72A G136A]: the self-cleavage was determined as 0.19.

The values above are taken from the RNAGym collection of RNA variant scans (doi:10.7554/elife.90254).
